This is an account of results in paper PMC4336329 (PLoS ONE, 2015).

Structures are written as SMILES. In all, about 310,000 compounds went through this assay and about 2,200 (0.71%) showed an effect of 50% or more. The effect is printed as a negative number. The list shows a part of the results.

In the assay the target is human ether-à-go-go-related gene (hERG) potassium channel (human, UniProt Q12809). In words: primary screen, population patch clamp on CHO cells stably expressing hERG.
Chain of human ether-à-go-go-related gene (hERG) potassium channel (Q12809 whole entry, looked up): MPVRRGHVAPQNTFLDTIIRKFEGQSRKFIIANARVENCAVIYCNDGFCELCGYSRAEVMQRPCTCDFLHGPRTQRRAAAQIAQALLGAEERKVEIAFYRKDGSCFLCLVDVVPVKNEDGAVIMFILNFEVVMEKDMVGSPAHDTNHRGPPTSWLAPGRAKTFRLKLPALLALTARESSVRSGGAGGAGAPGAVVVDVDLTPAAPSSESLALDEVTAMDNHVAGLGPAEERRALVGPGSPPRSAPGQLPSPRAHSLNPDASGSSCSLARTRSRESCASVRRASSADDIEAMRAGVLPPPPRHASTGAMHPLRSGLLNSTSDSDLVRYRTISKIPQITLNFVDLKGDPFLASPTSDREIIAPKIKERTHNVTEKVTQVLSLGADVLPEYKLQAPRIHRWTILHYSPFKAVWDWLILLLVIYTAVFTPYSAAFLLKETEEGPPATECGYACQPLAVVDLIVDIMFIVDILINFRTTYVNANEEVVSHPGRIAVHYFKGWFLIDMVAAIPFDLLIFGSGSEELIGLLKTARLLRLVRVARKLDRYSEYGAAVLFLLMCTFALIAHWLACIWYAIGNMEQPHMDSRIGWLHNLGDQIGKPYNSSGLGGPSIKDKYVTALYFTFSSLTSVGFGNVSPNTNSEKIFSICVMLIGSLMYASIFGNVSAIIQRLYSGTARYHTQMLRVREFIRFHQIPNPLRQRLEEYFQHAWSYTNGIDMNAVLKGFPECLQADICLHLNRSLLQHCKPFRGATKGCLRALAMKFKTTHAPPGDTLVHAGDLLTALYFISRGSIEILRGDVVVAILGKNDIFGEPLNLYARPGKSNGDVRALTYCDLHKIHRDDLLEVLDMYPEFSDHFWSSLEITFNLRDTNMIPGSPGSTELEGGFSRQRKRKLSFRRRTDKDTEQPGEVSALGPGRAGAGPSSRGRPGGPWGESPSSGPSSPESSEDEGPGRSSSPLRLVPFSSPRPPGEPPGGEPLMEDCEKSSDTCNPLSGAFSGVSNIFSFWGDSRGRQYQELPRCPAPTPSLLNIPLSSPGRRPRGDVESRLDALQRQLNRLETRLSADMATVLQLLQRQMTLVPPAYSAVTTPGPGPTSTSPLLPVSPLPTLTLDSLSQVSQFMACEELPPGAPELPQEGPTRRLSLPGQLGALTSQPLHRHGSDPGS
For `COc1ccc(CN2CCNC(=O)C2CC(=O)NC2CCCC2)c(C)c1C` (centres unmarked), the “hERG current change (%, negative = inhibition) at 1uM” value is 10.2%.

For the compound `CC(C)(C)NC(=O)C(=O)NCc1ccccn1`, the “hERG current change (%, negative = inhibition) at 1uM” value was found to be 14.1%.

In the case of `Cc1nnc(NC(=O)CSc2ccc(-c3ccc(Cl)cc3)nn2)s1`, the “hERG current change (%, negative = inhibition) at 1uM” value is 12.4%.

On to `COc1ccccc1CNC(=O)CCNC(=O)N1CC(=O)Nc2ccccc21`, for which the “hERG current change (%, negative = inhibition) at 1uM” value is 14.3%.

Consider `O=C(O)c1ccccc1C(=O)N(c1ccccc1)c1ccccc1`, for which the “hERG current change (%, negative = inhibition) at 1uM” value is -7.87%.

For the compound `COCCCN(C(=S)Nc1ccc(C)cc1Cl)C(C)c1ccncc1` (centres unmarked), the “hERG current change (%, negative = inhibition) at 1uM” value is listed as 9.65%.

Consider `O=C1C(=O)N(Cc2cccnc2)C(c2cccc([N+](=O)[O-])c2)/C1=C(\O)c1ccc2c(c1)OCCO2` (centres unmarked), for which the “hERG current change (%, negative = inhibition) at 1uM” value was 3.29%.

`Cn1nc(-c2ccccc2)c(CSc2ccccc2)c1Cl`: the “hERG current change (%, negative = inhibition) at 1uM” value was 13.6%.

Regarding `O=C(/C(=C/O)N=Nc1ccc(Cl)cc1)c1ccncc1`, the “hERG current change (%, negative = inhibition) at 1uM” value is given as 12.2%.

As to `CC(=O)N1N=C(c2ccc(C)cc2)CC1c1ccc2c(c1)OCO2` (centres unmarked), the “hERG current change (%, negative = inhibition) at 1uM” value was -6.77%.

Turning to `CC(=O)N1N=C2C3CCN(CC3)C2C1c1ccc(Br)cc1` (centres unmarked), the “hERG current change (%, negative = inhibition) at 1uM” value was 6.4%.

For the compound `O=C(COc1cccc(Cl)c1)Nc1ccccc1N1CCCCC1`, the “hERG current change (%, negative = inhibition) at 1uM” value came to 4.2%.

Turning to `CC(C)(C)c1cc(CCC(=O)NNC(=O)c2ccco2)cc(C(C)(C)C)c1O`, the “hERG current change (%, negative = inhibition) at 1uM” value is 1.37%.

As for `CCc1nc2nc(C)c(NS(=O)(=O)c3ccc(Cl)s3)c(=O)n2[nH]1`, the “hERG current change (%, negative = inhibition) at 1uM” value was 13.9%.

Turning to `COc1cc(OC)c2c(C)c(Cl)c(=O)oc2c1`, the “hERG current change (%, negative = inhibition) at 1uM” value is reported as 13.7%.

As to `O=C(CSc1nc(-c2ccccc2)cc(=O)[nH]1)Nc1ccccn1`, the “hERG current change (%, negative = inhibition) at 1uM” value is listed as 4.87%.

As to `Cc1ccc(S(=O)(=O)N/N=C/c2cccc3nccnc23)cc1`, the “hERG current change (%, negative = inhibition) at 1uM” value is 13.1%.

For the compound `CCN1CCN(C(=O)c2ccc(CNS(=O)(=O)c3cccc(OC)c3)cc2)CC1`, the “hERG current change (%, negative = inhibition) at 1uM” value amounted to 2.31%.

`O=C(Cc1cccc2ccccc12)Nc1nc2ccccc2[nH]1`: the “hERG current change (%, negative = inhibition) at 1uM” value is listed as -4.04%.

For the compound `Cc1cccc(C(=O)NC2CCCc3ccccc32)c1` (centres unmarked), the “hERG current change (%, negative = inhibition) at 1uM” value is recorded as 10.9%.

Turning to `CCOC(=O)CNC(=O)N1CCc2ccc(NC(=O)c3ccccc3OC)cc2C1`, the “hERG current change (%, negative = inhibition) at 1uM” value is 10.4%.

Turning to `O=C(c1cccc(F)c1)N1CCC(c2nc3ccccc3s2)CC1`, the “hERG current change (%, negative = inhibition) at 1uM” value is reported as -10.9%.

Turning to `COC(=O)COc1ccc2c(c1C)O/C(=C\c1ccco1)C2=O`, the “hERG current change (%, negative = inhibition) at 1uM” value came out at 7.9%.

`CCOCCc1nnc(NC(=O)CCC2CCCCC2)s1`: the “hERG current change (%, negative = inhibition) at 1uM” value is 12.2%.

With `O=C(/C=C/c1ccc(O)c([N+](=O)[O-])c1)c1ccc2ccccc2c1`, the “hERG current change (%, negative = inhibition) at 1uM” value came out at 16.4%.

In the case of `COc1ccc(N(Cc2ccccc2)S(=O)(=O)c2cccc(C(=O)NC3=NCCS3)c2)cc1`, the “hERG current change (%, negative = inhibition) at 1uM” value stood at 11.3%.

`CC(=O)N1CCC(N(CCCOC(C)C)S(=O)(=O)c2ccc([N+](=O)[O-])cc2)CC1`: the “hERG current change (%, negative = inhibition) at 1uM” value stood at 1.46%.

On to `Cn1nc(-c2ccccc2)c(C(=O)NC(C(=O)O)c2ccccc2)c1Cl` (centres unmarked), for which the “hERG current change (%, negative = inhibition) at 1uM” value is 15.2%.

Regarding `COC(=O)c1cn(NC(=O)c2cc(OC)c(OC)c(OC)c2)c(=O)c2ccccc12`, the “hERG current change (%, negative = inhibition) at 1uM” value worked out at 16.2%.

For the compound `Cc1cccc(OCc2nnc(SCC(=O)Nc3ccc(C)c(C)c3)o2)c1`, the “hERG current change (%, negative = inhibition) at 1uM” value is 10%.

For the compound `Cc1ccc(SC(C)C(=O)NCC(C)C)cc1` (centres unmarked), the “hERG current change (%, negative = inhibition) at 1uM” value stood at 10.5%.

For the compound `CCc1ccc(NC(=O)CSc2nnc(Cc3cccn3C)n2-c2ccc(OC)cc2)cc1`, the “hERG current change (%, negative = inhibition) at 1uM” value is given as -1.55%.

As for `Cc1cc(C)cc(C(=O)OCC(=O)NCC(F)(F)F)c1`, the “hERG current change (%, negative = inhibition) at 1uM” value was found to be 8.35%.

For `Cc1ccsc1/C=N\NC(=O)c1n[nH]c2c1CCC2`, the “hERG current change (%, negative = inhibition) at 1uM” value is -0.0557%.

`Cc1cccc(-c2nc3c(c(SCC(=O)N4CCOCC4)n2)Cc2c(CO)cnc(C)c2O3)c1`: the “hERG current change (%, negative = inhibition) at 1uM” value is recorded as 1.59%.

As to `Cn1c(=O)cc(OCC(=O)N2CCN(Cc3ccc4c(c3)OCO4)CC2)c2ccccc21`, the “hERG current change (%, negative = inhibition) at 1uM” value is listed as -7.64%.

As to `Cc1cc(NS(=O)(=O)c2ccc(NC(=O)c3ccco3)cc2)no1`, the “hERG current change (%, negative = inhibition) at 1uM” value is reported as 6.55%.

Consider `O=C(NNC(=O)c1sccc1-n1cccc1)c1cccs1`, for which the “hERG current change (%, negative = inhibition) at 1uM” value came to 8.55%.

As to `O=C(/C=C/c1ccc2c(c1)OCCCO2)c1ccc2ccccc2c1O`, the “hERG current change (%, negative = inhibition) at 1uM” value was -0.813%.

As for `NC(=O)c1ccccc1OCC(=O)NS(=O)(=O)c1ccc(Cl)cc1`, the “hERG current change (%, negative = inhibition) at 1uM” value is given as -3.01%.

In the case of `C=CCN(c1ccccc1)S(=O)(=O)c1cccc(C(=O)Nc2cccc(C)n2)c1`, the “hERG current change (%, negative = inhibition) at 1uM” value was 13.5%.

As for `Cc1ccccc1Cn1cc(NC(=O)CCCn2nc([N+](=O)[O-])cc2C)cn1`, the “hERG current change (%, negative = inhibition) at 1uM” value amounted to 0.646%.

Turning to `CCC1CCCCN1C(=O)CSc1nnc(-c2cccc(Cl)c2)o1` (centres unmarked), the “hERG current change (%, negative = inhibition) at 1uM” value was -9.15%.

`O=C(O)C(=O)O.O=C(c1ccccc1)c1ccc(OCCCCN2CCCCC2)cc1`: the “hERG current change (%, negative = inhibition) at 1uM” value is -7.28%.
